Structures can show the parent of a compound that is named as a salt. Some of the results follow. Cut-off read from the data, not from the text of the source: active = -2 or less and inactive = the rest. Single values are uncertain, as repeats are few or missing.
system: hPSC-derived cortical neurons (WA09); assay: nuclei number (viability) z-score; higher = more surviving cells; conditions: 5 µM; treatment: days 7-14 after plating, readout day 21
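Note: nuclei counted from DAPI counterstain by automated high-content image analysis, four fields per well at ×20 in 384-well plates, with sequential b-score then z-score normalization.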

Row | Compound | nuclei number (z-score)
1 | COc1c(N2CCNC(C)C2)c(F)cc2c(=O)c(C(=O)O)cn(C3CC3)c12 (stereo unspecified) [Gatifloxacin] | inactive: 0.66
2 | C#CCC(Cc1cnc2nc(N)nc(N)c2n1)c1ccc(C(=O)N[C@@H](CCC(=O)O)C(=O)O)cc1 (stereo partly specified) [Pralatrexate] | inactive: 0.155
3 | O=C(C[S+]([O-])Cc1ccco1)NC/C=C\COc1cc(CN2CCCCC2)ccn1 (stereo unspecified) [Lafutidine] | inactive: -0.033
4 | CCC(=O)Nc1cccc(Oc2nc(Nc3ccc(N4CCN(C)CC4)cc3OC)ncc2Cl)c1 | inactive: 2.52
5 | N#Cc1c(NC(=O)c2cccc3ccccc23)sc2c1CCCC2 [JNK Inhibitor IX] | inactive: -0.197
6 | C=CC(=O)Nc1cccc(Nc2nc(Nc3ccc(OCCOC)cc3)ncc2F)c1 | inactive: -1.32
7 | COC(=O)Nc1nc2cc([S+]([O-])c3ccccc3)ccc2[nH]1 (stereo unspecified) [Oxfendazole] | inactive: 1.18
8 | CCc1c(Cl)c(O)c(Cl)c(O)c1C(=O)O[C@H]1[C@H](O)[C@H](OC)[C@H](OC/C2=C\C=C\C[C@H](O)/C(C)=C/[C@H](CC)[C@@H](O[C@@H]3OC(C)(C)[C@@H](OC(=O)C(C)C)[C@H](O)[C@@H]3O)/C(C)=C/C(C)=C/C[C@@H]([C@@H](C)O)OC2=O)O[C@@H]1C [Fidaxomicin] | inactive: 0.394
9 | Nc1ccn([C@@H]2CS[C@H](CO)O2)c(=O)n1 [Lamivudine] | inactive: 1.23
10 | O=C1NCCCc2c1oc1ccc(O)cc21 | inactive: 0.368
11 | COc1ccccc1OCC(O)COC(N)=O (stereo unspecified) [Methocarbamol] | inactive: -0.444
12 | CC(C)C[C@H](NC(=O)CNC(=O)c1cc(Cl)ccc1Cl)B1OC(=O)C(CC(=O)O)(CC(=O)O)O1 | active: -6.26
13 | NCCCC[C@H](NC(=O)[C@@H](NC(=O)[C@H](Cc1c[nH]c2ccccc12)NC(=O)[C@H](CCCCN)NC(=O)[C@H](CCCCN)NC(=O)[C@H](Cc1c[nH]c2ccccc12)NC(=O)[C@H](Cc1c[nH]c2ccccc12)NC(=O)[C@H](CCCCN)NC(=O)[C@@H](N)CCCCN)C(c1ccccc1)c1ccccc1)C(N)=O | inactive: -1.06
14 | CCN(CC)CCCCNc1ncc2cc(-c3cc(OC)cc(OC)c3)c(NC(=O)NC(C)(C)C)nc2n1 | inactive: -0.69
15 | C[C@]1(Cn2ccnn2)[C@H](C(=O)O)N2C(=O)C[C@H]2S1(=O)=O [Tazobactam] | inactive: -0.513
16 | CC[C@@H](CO)NCCN[C@@H](CC)CO [Ethambutol HCl] | inactive: 0.956
17 | CCCOc1ccc(C(=O)OCCN(CC)CC)cc1N [Proparacaine HCl] | inactive: 0.0262
18 | CCN(CC)CCOCCOC(=O)C(CC)(CC)c1ccccc1 [Oxeladin Citrate] | inactive: -1.87
19 | CC1(C)[C@@H](OC(=O)CCC(=O)O)CC[C@]2(C)[C@H]3C(=O)C=C4[C@@H]5C[C@@](C)(C(=O)O)CC[C@]5(C)CC[C@@]4(C)[C@]3(C)CC[C@@H]12 [Carbenoxolone Sodium] | inactive: 1.43
20 | C#C[C@]1(O)CC[C@H]2[C@@H]3CCC4=CC(=O)CC[C@@H]4[C@H]3CC[C@@]21CC [Levonorgestrel] | inactive: 4.29
21 | N#C/C(=C\c1ccc(O)c(O)c1)C(=O)NCc1ccccc1 [AG-490 (Tyrphostin B42)] | inactive: 1.73
22 | CC(=O)OCC(=O)[C@H]1CC[C@H]2[C@@H]3CCC4=CC(=O)CC[C@]4(C)[C@H]3CC[C@]12C [Deoxycorticosterone acetate] | inactive: 0.224

Row | Compound | nuclei number (z-score)
23 | Cn1cc(-c2ccc3c(c2)CCN3C(=O)Cc2cccc(C(F)(F)F)c2)c2c(N)ncnc21 | inactive: -0.312
24 | Oc1cccc(-c2nc(N3CCOCC3)c3oc4ncccc4c3n2)c1 | inactive: -0.512
25 | O=C(/C=C/c1ccc(O)c(O)c1)O[C@@H]1C[C@](O)(C(=O)O)C[C@@H](O)[C@H]1O [Chlorogenic Acid] | inactive: 0.364
26 | C[C@@H]1COC(Nc2ccc3ncnc(Nc4ccc(OCc5nccs5)c(Cl)c4)c3c2)=N1 [Varlitinib] | inactive: 0.39
27 | CN(C)CC/C=C1/c2ccccc2COc2ccc(CC(=O)O)cc21 [Olopatadine HCl] | inactive: 1.38
28 | CN(C)Cc1ccc(S(=O)(=O)n2ccc(/C=C/C(=O)NO)c2)cc1 [Resminostat] | inactive: -1.67
29 | Nc1ncnc2n[nH]c(Nc3ccc(F)cc3)c12 | inactive: 2.3
30 | CC[C@H](C)C[C@H](C)CCCCCCCCC(=O)N[C@H]1C[C@@H](O)[C@@H](NCCN)NC(=O)[C@@H]2[C@@H](O)CCN2C(=O)[C@H]([C@H](O)CCN)NC(=O)[C@H]([C@H](O)[C@@H](O)c2ccc(O)cc2)NC(=O)[C@@H]2C[C@@H](O)CN2C(=O)[C@H]([C@@H](C)O)NC1=O [Caspofungin Acetate] | inactive: -0.0611
31 | CCn1cc(NC(=S)Nc2cc(Cl)ccc2OC)c(C(N)=O)n1 | inactive: -0.647
32 | c1ccc(CN(CC2=NCCN2)c2ccccc2)cc1 [Antazoline HCl] | inactive: -0.762
33 | C[C@H](NC(=O)C(=O)Nc1ccccc1C(C)(C)C)C(=O)N[C@@H](CC(=O)O)C(=O)COc1c(F)c(F)cc(F)c1F [Emricasan] | inactive: 2.08
34 | C=CC(=O)Nc1cccc(Oc2nc(Nc3ccc(N4CCN(C)CC4)cc3)nc3ccsc23)c1 | active: -2.79
35 | Cc1ccc(-n2nc(C(C)(C)C)cc2NC(=O)Nc2ccc(OCCN3CCOCC3)c3ccccc23)cc1 [BIRB 796 (Doramapimod)] | inactive: -0.113
36 | CCCCCCCCCCCC[N+](C)(C)CCOc1ccccc1 [Domiphen Bromide] | active: -4.58
37 | Cc1cc(OCc2nnc(SC3CCCC3)n2-c2cccnc2)ccc1-c1ccc(S(C)(=O)=O)cc1 | inactive: -0.0749
38 | CNC(=O)c1ccc(C)c(-n2c(C)cc(OCc3ccc(F)cc3F)c(Br)c2=O)c1 | inactive: 1.84
39 | OC(CCCN1CCCCC1)(c1ccccc1)c1ccccc1 [Diphenidol HCl] | inactive: 0.139
40 | CCN(CC)CCOC(=O)C(c1ccccc1)c1ccccc1 [Adiphenine HCl] | inactive: 0.329
41 | CCCCCCCCCCCCc1ccc(S(=O)(=O)Nc2nncs2)cc1 | inactive: -0.788
42 | Oc1c(F)cc(-c2cnccc2-c2ccc(N3CCOCC3)cc2)cc1F | inactive: 2.88
43 | CCOC(=O)c1ccc(N)cc1 [Benzocaine] | inactive: 0.0766
44 | CCOC(=O)c1ccc(N)cc1 [Benzocaine hydrochloride] | inactive: 0.276

Row | Compound | nuclei number (z-score)
45 | C[C@H]1[C@H](C)CC[C@]2(C(=O)O)CC[C@]3(C)C(=CC[C@@H]4[C@@]5(C)C[C@@H](O)[C@H](O)[C@@](C)(CO)[C@@H]5CC[C@]43C)[C@H]12 [Asiatic Acid] | inactive: 0.281
46 | CC(C)(C)CC(C)(C)c1ccc(O)c(Cc2ccc(Cl)cc2Cl)c1 [Clofoctol] | inactive: -0.98
47 | CN1CCN(c2c(F)cc3c(=O)c(C(=O)O)cn4c3c2OCN4C)CC1 [Marbofloxacin] | inactive: 1
48 | COC(=O)c1ccc([C@H]2c3[nH]c4ccccc4c3C[C@H](C(=O)OC)N2C(=O)CCl)cc1 | active: -4.09
49 | Cc1ccc(S(=O)(=O)NC(=O)NN2CCCCCC2)cc1 [Tolazamide] | inactive: 2.27
50 | C=CC(C)(C)c1cc(/C=C/C(=O)c2ccc(O)cc2)c(OC)cc1O [Licochalcone A] | inactive: -0.228
51 | Cc1ncc(Cl)cc1NCc1ccc(C(=O)N[C@@H](CC2CCCC2)C(=O)NC2CC2)s1 | inactive: 0.319
52 | C[N+](C)(C)CCOC(=O)CCC(=O)OCC[N+](C)(C)C [Succinylcholine Chloride Dihydrate] | inactive: 0.302
53 | O=C(CCCCCCC(=O)Nc1ccc([C@H]2O[C@@H](CSc3nc(-c4ccccc4)c(-c4ccccc4)o3)C[C@@H](c3ccc(CO)cc3)O2)cc1)NO [Tubacin] | inactive: -0.687
54 | COc1cc(C(C)=O)ccc1O [Apocynin] | inactive: 0.595
55 | CN(C)c1ccc(O)c2c1C[C@H]1C[C@H]3[C@H](N(C)C)C(O)=C(C(N)=O)C(=O)[C@@]3(O)C(O)=C1C2=O [Minocycline HCl] | inactive: 0.803
56 | CCCCCCCCCCCCCCCCOP(=O)([O-])OCC[N+](C)(C)C [Miltefosine] | inactive: -0.523
57 | CN(Cc1cnc2nc(N)nc(N)c2n1)c1ccc(C(=O)N[C@@H](CCC(=O)O)C(=O)O)cc1 [Methotrexate] | inactive: 0.218
58 | CCOc1ccc2nc3cc(N)ccc3c(N)c2c1 [Ethacridine lactate monohydrate] | active: -5.13
59 | Nc1cc(F)ccc1NC(=O)/C=C/c1cnn(C/C=C/c2ccccc2)c1 | inactive: -0.569
60 | Nc1nc(NC2CC2)c2ncn([C@H]3C=C[C@@H](CO)C3)c2n1 [Abacavir sulfate] | inactive: 1.69
61 | NC(N)=Nc1nc(CSCC/C(N)=N/S(N)(=O)=O)cs1 [Famotidine] | inactive: -0.797
62 | CSc1ccc2c(c1)N(CCC1CCCCN1C)c1ccccc1S2 (stereo unspecified) [Thioridazine HCl] | active: -2.47
63 | CC/C(=C(/CC)c1ccc(O)cc1)c1ccc(O)cc1 [Diethylstilbestrol] | inactive: 0.968
64 | CC1=C(/C=C/C(C)=C/C=C/C(C)=C\C(=O)O)C(C)(C)CCC1 [Isotretinoin] | inactive: 0.222
65 | OC(CN1CCN(c2cccc(Cl)c2)CC1)C(c1ccccc1)c1ccccc1 (stereo unspecified) | inactive: 0.245
66 | COc1cc(OC)c(/C=C/S(=O)(=O)Cc2ccc(OC)c(NCC(=O)O)c2)c(OC)c1 | active: -3.95
